Hit rate of the full screen: of about 310,000 compounds, about 18,000 (5.8%) were called active. This list was built around the results that the source calls inconclusive (neither active nor inactive); the mix of calls is not that of the screen. Calls follow the shape of the dose curve; as a rule, active = well fitted inhibition curve with a large enough effect; inconclusive = small, poorly fitted or top-dose-only effect, or another doubt; inactive = no such curve, though single readings can be large or run the other way. No potency is given beside an inconclusive call; the fits are too rough.
Experiment: Primary qHTS for delayed death inhibitors of the malarial parasite plastid, 48 hour incubation
Conditions: P. falciparum luciferase growth in erythrocytes; series mostly up to 28.7 µM; activity change, negative = inhibition: at the top concentration
Summary of the method: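 Read-out is firefly luciferase luminescence from an integrated reporter in P. falciparum, so falling signal marks reduced parasite growth. Infected erythrocytes were at 2% hematocrit and 0.1% parasitemia (final) in Albumax-supplemented RPMI 1640.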
% is scaled to controls: 0 for no effect and ±100 for the full control effect; potency is read from the fitted curve at half-maximal effect; tags tell the direction and shape of the fitted curve.

SMILES | activity change, negative = inhibition | Potency
CCCc1cc(CNC(=O)C2CCC(=O)N(Cc3ccccc3OC)C2)on1 (stereo unspecified) | inactive: -8.87% | 
COCCNC(=O)c1ccc(CSCc2cccc(Cl)c2)o1 |  | inconclusive [inhibitor, single point]
O=C(c1cc2ccccc2oc1=O)N1CCN(S(=O)(=O)c2ccccc2)CC1 |  | inconclusive [inhibitor, single point]
COCCn1c(Sc2ccccc2)nc2c1c(=O)[nH]c(=O)n2C |  | inconclusive [inhibitor, full curve, poor fit]
Cc1cc(C)n(CC(=O)NNC(=O)COc2ccc(F)cc2Br)n1 | inactive: 4.95% | 
Cn1c(=O)n(CCCOc2ccc(Br)cc2)c2ccccc21 | inactive: -23.4% | 
CC(CNc1nc2ccc(Cl)cc2n2cnnc12)c1ccccc1 (stereo unspecified) |  | inconclusive [inhibitor, single point]
CCOc1ccc(N2CC(O)(c3ccc(F)cc3)[N+]3=C2CCCC3)cc1 (stereo unspecified) |  | inconclusive [inhibitor, partial curve, poor fit]
CC(C)(C)c1cc(C(=O)NN)n(Cc2ccc(Cl)cc2Cl)n1 |  | active: 10.4 µM
COc1ccc2[nH]c(=O)c(CN(CCCN(C)C)C(=O)Nc3ccc(F)cc3)cc2c1 |  | active: 13.1 µM
O=C(Nc1ccc2nc3n(c(=O)c2c1)CCCCC3)C(=O)N1CCN(c2ccc(F)cc2)CC1 |  | inconclusive [inhibitor, full curve]
N#Cc1cc2[nH]c3ccccc3c2[n+](-c2ccc([N+](=O)[O-])cc2)c1N |  | inconclusive [inhibitor, full curve, poor fit]
Cc1cccc(NC(=O)/C(=C\c2ccco2)NC(=O)c2cccs2)c1 |  | inconclusive [inhibitor, single point]
COC(=O)C1=C(C(=O)OC)[C@@H]2N(C)c3ccc(OC)cc3[C@@]23C[C@@H](C(=O)OC)N(C(=O)c2cccs2)C3=N1 | inactive: 28.1% | 
Cc1ccccc1Nc1nc(N)nc(CSc2nnc(-c3ccccc3)n2C)n1 |  | inconclusive [inhibitor, partial curve, poor fit]
CCOc1ccccc1-n1c(SCC(=O)Nc2nccs2)nnc1-c1ccoc1C |  | inconclusive [inhibitor, single point]
O=C(c1ccc(Cn2cnnn2)cc1)N1CCCC(Nc2ccc(F)cc2)C1 (stereo unspecified) |  | inconclusive [inhibitor, full curve, poor fit]
O=C(Nc1ccccc1OCc1ccccc1)c1ccccc1Br |  | inconclusive [inhibitor, single point]
CCCN1CCN(C(=O)CN2C(=O)CC(C)(C)S(=O)(=O)c3ccccc32)CC1 | inactive: -17.1% | 
Cc1cccc(N2CCN(C(=O)CCCCCn3c(=S)[nH]c4ccc(N5CCOCC5)cc4c3=O)CC2)c1C |  | active: 9.28 µM
COc1ccccc1NC(=O)Nc1nc(C(C)(C)C)cs1 |  | inconclusive [inhibitor, full curve]
CCOC(=O)c1ccccc1NS(=O)(=O)c1c(C)nc2sccn2c1=O |  | inconclusive [inhibitor, partial curve, poor fit]

SMILES | activity change, negative = inhibition | Potency
Cc1ccccc1NC(=S)N(Cc1ccccn1)Cc1ccccc1Cl |  | inconclusive [inhibitor, single point]
Cc1c(NC(=O)C(C)Sc2nc(N)cc(=O)[nH]2)c(=O)n(-c2ccccc2)n1C (stereo unspecified) | inactive: -8.79% | 
CCN(CC)S(=O)(=O)c1cccc(C(=O)NC(Cc2c[nH]c3ccccc23)c2nnc3n2CCC3)c1 (stereo unspecified) |  | active: 9.28 µM
Cc1ccccc1C(=O)N1CCC(C(=O)Nc2sccc2C(N)=O)CC1 |  | inconclusive [inhibitor, single point]
O=C(c1cccs1)N1CCCC(c2nc3c(nnn3Cc3cccc(Cl)c3)c(=O)[nH]2)C1 (stereo unspecified) |  | inconclusive [inhibitor, partial curve, poor fit]
CC(C)(C)OC(=O)N[C@@H](Cc1ccccc1)c1nnc(S(=O)(=O)Cc2cccc(F)c2)o1 |  | inconclusive [inhibitor, partial curve, poor fit]
CCN(CC)CC(=O)Nc1sc(C)cc1C(=O)c1ccc(C)cc1 |  | inconclusive [inhibitor, single point]
Cc1ccc(C)c(S(=O)(=O)NC(Cc2c[nH]c3ccccc23)C(=O)O)c1 (stereo unspecified) |  | inconclusive [inhibitor, single point]
O=S(=O)(Nc1ccccc1N1CCCCC1)c1ccccc1 |  | inconclusive [inhibitor, partial curve, poor fit]
OCCN1CCN(CC/C=C2/c3ccccc3Sc3ccc(Cl)cc32)CC1 |  | active: 10.4 µM
OCC1(Cc2ccc(Cl)cc2)CCN(CC2CC=CCC2)CC1 (stereo unspecified) |  | active: 6.57 µM
CCOC(=O)C1=C(C)NC(=O)NC1/C=C/c1ccccc1OC (stereo unspecified) | inactive: 2.35% | 
Cc1occc1C(=O)Nc1ccc(S(N)(=O)=O)cc1 | inactive: 58% | 
Cn1c(=O)c2c(SCC(=O)NCC3CCCO3)nc(CC(C)(C)C)nc2n(C)c1=O (stereo unspecified) |  | inconclusive [inhibitor, single point]
O=c1[nH]c(CSc2nc3ccccc3[nH]2)nc2c1cnn2-c1ccccc1 | inactive: -3.94% | 
C/C(CC(=O)NC1CCCC1)=N\NC(=O)Cc1cccs1 | inactive: 1.15% | 
COc1ccc(CCNC(=O)c2ccc(CS(=O)(=O)c3ccc(Br)cc3)o2)cc1OC |  | inconclusive [inhibitor, partial curve, poor fit]
O=C(Nc1nnc(C2CC2)s1)C1CCCCC1 | inactive: 74.7% | 
CCOC(=O)N/N=C\c1cccc(OC)c1 |  | inconclusive [inhibitor, partial curve, poor fit]
C=CCSc1nc(N)c2c3c(sc2n1)CN(C)CC3 |  | inconclusive [inhibitor, partial curve]
CC1CCCCC1NC(=O)CCn1ccc2cc(S(=O)(=O)N3CCCC3)ccc21 (stereo unspecified) |  | inconclusive [inhibitor, single point]
Cn1nc(-c2ccc(N3CCOCC3)c(NS(=O)(=O)c3ccc(Cl)cc3)c2)c2ccccc2c1=O |  | inconclusive [inhibitor, single point]

SMILES | activity change, negative = inhibition | Potency
CCN1CCN(CCCN(Cc2ccco2)C(=S)Nc2ccc(Cl)cc2)CC1 |  | inconclusive [inhibitor, partial curve, poor fit]
FC(F)(F)c1ccc(Cl)c(-n2c(Cc3cccs3)n[nH]c2=S)c1 |  | inconclusive [inhibitor, full curve, poor fit]
CC(C)NC(C)Cc1ccc(I)cc1 (stereo unspecified) |  | inconclusive [inhibitor, partial curve, poor fit]
CN(C)c1ccc(/C=N\Nc2nc(-c3ccccc3)cc(=O)[nH]2)cc1 |  | active: 2.33 µM
CC(C)[C@H](NC(=O)[C@H](Cc1ccccc1)n1c(=O)[nH]c2ccccc2c1=O)C(=O)N[C@@H](Cc1ccccc1)C(=O)O |  | inconclusive [inhibitor, partial curve, poor fit]
Cc1ccc(S(=O)(=O)N2CCOCC2)cc1C(=O)N(Cc1nnc(-c2ccccc2Cl)o1)C1CC1 |  | inconclusive [inhibitor, single point]
COc1ccc(N(CC(=O)NCCc2ccccc2)C(=O)c2csnn2)cc1 |  | inconclusive [inhibitor, single point]
COc1ccccc1C1=NOC(Cn2c(=O)c3c(ncn3C)n(C)c2=O)C1 (stereo unspecified) |  | inconclusive [inhibitor, single point]
O=C(Nc1ccc(N2CCOCC2)c(Cl)c1)c1cccnc1Cl |  | inconclusive [inhibitor, single point]
CN1CCSc2ccc(C(=O)NCc3ccccc3)cc21 |  | inconclusive [inhibitor, single point]
O=C(COc1ccc(S(=O)(=O)N2CCOCC2)cc1)N1CCN(c2ccccc2)CC1 |  | inconclusive [inhibitor, single point]
CCOC(=O)c1cc(NC(=O)Nc2ccc(Br)cc2)c(C)nc1C |  | inconclusive [inhibitor, full curve]
CCN(CC)CCN1C(=O)c2oc3ccccc3c(=O)c2C1c1ccc(C)cc1 (stereo unspecified) |  | active: 3.29 µM
O=C(CCC(=O)c1ccc(F)cc1)Nc1ccccc1Cl | inactive: 47.4% | 
COc1ccc2[nH]c(=O)c(CN(Cc3cccnc3)Cc3nnnn3CC3CCCO3)cc2c1 (stereo unspecified) |  | inconclusive [inhibitor, full curve]
C=CCOc1ccc(C2NC(=O)NC(C)=C2C(=O)OC)cc1 (stereo unspecified) |  | inconclusive [inhibitor, partial curve]
CCOC(=O)c1c(NC(=O)CN2C(=O)NC3(CCCCC3C)C2=O)sc(C(=O)N(C)C)c1C (stereo unspecified) |  | inconclusive [inhibitor, partial curve, poor fit]
COc1cccc(NC(=O)Nc2ccc3c(c2)N(C)C(=O)CS3)c1 |  | inconclusive [inhibitor, single point]
CCOC(=O)c1ccccc1NS(=O)(=O)c1ccc(S(=O)(=O)N2CCCC2)cc1 |  | inconclusive [inhibitor, partial curve]
CC1CCCC(C)N1/N=C/c1ccc(N(C)C)cc1 (stereo unspecified) | inactive: 0.672% | 
CCOc1ccc(N=Nc2c(=O)[nH]n3c(C)cc(C)nc23)cc1 | inactive: 5.03% | 
CC1Cc2cc(S(=O)(=O)N3CCN(C)CC3)ccc2N1C(=O)C1CC1 (stereo unspecified) |  | inconclusive [inhibitor, partial curve, poor fit]

Source: PubChem BioAssay AID504832 (National Center for Advancing Translational Sciences (NCATS), 2011)
